Consider 14 compounds from US20240409609A1, “REVERSIBLE LYSINE COVALENT MODIFIERS OF EGFR AND USES THEREOF” (Terremoto Biosciences, Inc., priority 2021, published 2024).

Where only a bound is given, the exact number is not on record here.

For assay [1], the target named is EGFR T790M C797S L858R in Ba/F3 cells (Homo sapiens (Human), UniProt P00533, C797S/L858R/T790M). The assay is described as follows: Ba/F3 pEGFR assay (AlphaLISA p-EGFR Tyr1068). In kind it is cell-based. Conditions: 2 hrs treatment. As to the method:
(§1) Cellular activity was determined using the Ba/F3 system for studying oncogenic mutant kinases (Warmuth 2007). […] Transduced cells were maintained in RPMI 1640 with 10% FBS. EGFR WT transduced cells were grown in media supplemented with EGF. To assay cellular activity of inhibitors, cells were treated with inhibitor from 1000X DMSO stock dilutions and incubated for 2 hrs at 37° C. 5% CO2. Subsequently, p-EGFR (Tyr1068) was quantified using a commercial sandwich immunoassay (PerkinElmer AlphaLISA SureFire assay; ALSU-PEGFR) according to the manufacturer's instructions. […] Curr Opin Oncol 19, 55-60 (2007), which is incorporated herein in its entirety.

Assay [2] concerns the target EGFR del746-750 T790M C797S in Ba/F3 cells (Homo sapiens (Human), UniProt P00533, C797S/DEL746-750/T790M). The assay is described as follows: Ba/F3 pEGFR assay (AlphaLISA p-EGFR Tyr1068). In kind it is cell-based. As to conditions: 2 hrs treatment; read-out: pEGFR Ba/F3 del19/T790M/C797S IC50. As to the method: as §1
In assay [3] the target is EGFR (d746-750) T790M C797S (Homo sapiens (Human), UniProt P00533, C797S/DEL746-750/T790M). The assay is described as follows: EGFR biochemical assay (AssayQuant chelation-enhanced fluorescence). As to conditions: read-out: AssayQuant EGFR del19/TM/CS IC50; 30 min preincubation, reaction time 150 min.
The next assay addresses EGFR L858R/T790M/C797S (Homo sapiens (Human), UniProt P00533, C797S/L858R/T790M). Described as above. As to conditions: read-out: AssayQuant EGFR LR/TM/CS IC50; 30 min preincubation, reaction time 150 min.

For the compound `COc1cc(N(C)CCN(C)C)c(NC(C)=O)cc1Nc1nccc(-c2cn(Cc3cccc(O)c3C=O)c3ccccc23)n1` [Compound 28], the IC50 is greater than 10000 nM in assay [1], greater than 10000 nM in assay [2], greater than 1000 nM in assay [3] and greater than 1000 nM at EGFR L858R/T790M/C797S.

For the compound `COc1cc(N(C)CCN(C)C)c(NC(C)=O)cc1Nc1nccc(-c2cn(Cc3ccc(C=O)c(O)c3)c3ccccc23)n1` [Compound 29], the IC50 is greater than 10000 nM in assay [1], greater than 10000 nM in assay [2], 672 nM in assay [3] and greater than 1000 nM on EGFR L858R/T790M/C797S.

As for `COc1cc(N(C)CCN(C)C)c(NC(C)=O)cc1Nc1nccc(-c2cn(Cc3ccc(O)c(C=O)c3)c3ccccc23)n1` [Compound 30], the IC50 is 4730 nM in assay [1], greater than 10000 nM in assay [2], 125 nM in assay [3] and 75.7 nM at EGFR L858R/T790M/C797S.

As for `COc1cc(N2CCC(N3CCN(C)CC3)CC2)ccc1Nc1ncc(Cl)c(Nc2ccc(NCc3ccc(C=O)c(O)c3)cc2)n1` [Compound 33], the IC50 worked out at 3340 nM in assay [1], 3610 nM in assay [2], 62.6 nM in assay [3] and 13.7 nM at EGFR L858R/T790M/C797S.

For `COc1cc(N2CCC(N3CCN(C)CC3)CC2)ccc1Nc1ncc(Cl)c(Nc2ccccc2-c2c(OC)ccc(C=O)c2O)n1` [Compound 34], the IC50 was determined as 4820 nM in assay [1], 9970 nM in assay [2], 16.2 nM in assay [3] and 11.6 nM on EGFR L858R/T790M/C797S.

Regarding `COc1cc(N2CCC(N3CCN(C)CC3)CC2)ccc1Nc1ncc(Cl)c(Nc2ccc(O)c(C=O)c2)n1` [Compound 35], the IC50 in assay [1] was 3090 nM; in assay [2], greater than 10000 nM; in assay [3] it was 29.3 nM; at EGFR L858R/T790M/C797S it was 72.7 nM.

Take `CC(C)c1ccc(N2CC(CS(C)(=O)=O)C2)c2cnc(Nc3ccnc(N(C)Cc4cccc(O)c4C=O)n3)cc12` [Compound 43]: the IC50 in assay [1] is 687 nM; in assay [2], 6230 nM; in assay [3] it was 54.4 nM; on EGFR L858R/T790M/C797S, 5.19 nM.

For the compound `CC(C)c1ccc(N2CC(CS(C)(=O)=O)C2)c2cnc(Nc3ccnc(N(C)CCc4cccc(O)c4C=O)n3)cc12` [Compound 45], the IC50 in assay [1] was greater than 10000 nM; in assay [2] it was greater than 10000 nM; in assay [3] it was greater than 1000 nM; on EGFR L858R/T790M/C797S it was 43.7 nM.

Regarding `CC(C)c1ccc(N2CC(CS(C)(=O)=O)C2)c2cnc(Nc3ccnc(-c4cccc(-c5cccc(O)c5C=O)c4)n3)cc12` [Compound 46], the IC50 is 726 nM in assay [1], 2020 nM in assay [2], 187 nM in assay [3] and 53.2 nM on EGFR L858R/T790M/C797S.

On to `CC(C)c1ccc(N2CC(CS(C)(=O)=O)C2)c2cnc(Nc3ccnc(Oc4cccc(O)c4C=O)n3)cc12` [Compound 48], for which the IC50 was greater than 10000 nM in assay [1], greater than 10000 nM in assay [2], greater than 1000 nM in assay [3] and 596 nM on EGFR L858R/T790M/C797S.

With `CC(C)c1ccc(N2CC(CS(C)(=O)=O)C2)c2cnc(Nc3ccnc(N(C)Cc4cccc(C=O)c4O)n3)cc12` [Compound 49], the IC50 is 8980 nM in assay [1], greater than 10000 nM in assay [2], 797 nM in assay [3] and greater than 1000 nM at EGFR L858R/T790M/C797S.

On to `CN1CCN(Cc2ccc3[nH]/c(=N\C(=O)c4cc(F)cc(Oc5cccc(O)c5C=O)c4)n(CC(C)(C)O)c3c2)CC1` [Compound 53], for which the IC50 amounted to 52.2 nM in assay [1], 93.9 nM in assay [2], 2.27 nM in assay [3] and 0.275 nM on EGFR L858R/T790M/C797S.

Turning to `CN1CCN(Cc2ccc3[nH]/c(=N\C(=O)c4cncc(Oc5cccc(O)c5C=O)c4)n(CC(C)(C)O)c3c2)CC1` [Compound 55], the IC50 in assay [1] is 30.8 nM; in assay [2] it was 32.7 nM; in assay [3], 2.18 nM; on EGFR L858R/T790M/C797S it was 0.307 nM.

For the compound `CN1CCN(c2ccc3[nH]/c(=N\C(=O)c4ccnc(Oc5cccc(O)c5C=O)c4)n(CC(C)(C)O)c3c2)CC1` [Compound 56], the IC50 in assay [1] was greater than 10000 nM; in assay [2], 706 nM; in assay [3], 99.4 nM; at EGFR L858R/T790M/C797S it was 87.4 nM.
